This is an account of results in a collection of fitness landscapes (doi:10.1038/s41467-024-54723-y).

In all, about 18,000 sequences were measured (“TetR repression strength (sort-seq, GFP reporter)”: median about 0.23, highest 2% from about 0.68 on). This is one part of the list.

Sequence of UniProt P04483 (P04483 whole entry): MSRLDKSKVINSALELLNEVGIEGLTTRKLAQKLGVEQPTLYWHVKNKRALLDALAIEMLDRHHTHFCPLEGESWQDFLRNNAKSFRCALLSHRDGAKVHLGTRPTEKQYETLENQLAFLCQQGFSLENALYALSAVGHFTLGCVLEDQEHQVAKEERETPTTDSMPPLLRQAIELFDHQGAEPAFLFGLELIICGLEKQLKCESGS

For the experiment, the target named is TetR (class B, Tn10) (UniProt P04483). The experiment is described as follows: TetR repression strength (sort-seq, GFP reporter) (relative to tetO2 = 1); higher = stronger repression. Conditions: E. coli. The procedure, abridged:
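Repression strength is the top bin index plus one minus the read-weighted mean bin, relative to the unaltered operator's value. A low-copy library in E. coli SIG10-MAX randomized eight operator positions between a constitutive promoter and sfGFP, with TetR expressed constitutively; cells grew 5 h at 37 °C in LB with 50 µg/mL chloramphenicol and 10^6 were FACS-sorted into 13 bins that were each Illumina-sequenced. Three independent transformations were averaged, keeping only members with ≥30 reads in all replicates and CV ≤0.5.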
As to TCCCGACTAGTGACTGAGA, the TetR repression strength stood at 0.579.
Under TCCCGTGAAGTCGTGGAGA stands 0.259.
Consider TCCCCGCTAGTTCATGAGA, for which the TetR repression strength amounted to 0.255.
Turning to TCCCGCGAAGTCAGGGAGA, the TetR repression strength came to 0.13.
TCCCGATAAGTGTCCGAGA: the TetR repression strength stood at 0.142.
Under TCCCTTATAGTCGGTGAGA stands 0.104.
Under TCCCTCATAGTCTGTGAGA stands 0.387; under TCCCCGCGAGTGGCCGAGA, 0.543.
Under TCCCCATTAGTGAAAGAGA stands 0.415.
The sequence TCCCCTACAGTTAGGGAGA had a TetR repression strength of 0.214.
As for TCCCCTCCAGTTACAGAGA, the figure is 0.421; as for TCCCTGGAAGTAGACGAGA, 0.0579.
Regarding TCCCCATGAGTCTGGGAGA, the TetR repression strength came out at 0.22.
For TCCCTCAAAGTTAGGGAGA, the TetR repression strength was determined as 0.162.
Under TCCCTCTCAGTGGTAGAGA stands 0.424; under TCCCCTTGAGTTGAGGAGA, 0.707.
Under TCCCCTCTAGTGTATGAGA stands 0.327.
TCCCGTCCAGTCGGCGAGA: the TetR repression strength is 0.216.
The sequence TCCCTGTCAGTGTCTGAGA returned a TetR repression strength of 0.328.
As for TCCCGGCCAGTGGTGGAGA, the figure is 0.568; as for TCCCTAACAGTAAGGGAGA, 0.118; as for TCCCGTCGAGTATGCGAGA, 0.373.
As for TCCCGCGAAGTTGGGGAGA, the TetR repression strength is 0.569.
In the case of TCCCCTAAAGTATATGAGA, the TetR repression strength is 0.28.
Under TCCCGGGTAGTGTAAGAGA stands 0.146.
On to TCCCAGTTAGTAATTGAGA, for which the TetR repression strength turned out to be 0.0467.
Sequence TCCCGACTAGTGACAGAGA yielded a TetR repression strength of 0.674.
Regarding TCCCCACGAGTTGGTGAGA, the TetR repression strength was 0.111.
TCCCAGGTAGTTTTTGAGA: the TetR repression strength stood at 0.307.
As for TCCCAAAAAGTGACAGAGA, the TetR repression strength turned out to be 0.627.
Under TCCCCGTCAGTTGTCGAGA stands 0.195.
Under TCCCCAGCAGTCGATGAGA stands 0.259; under TCCCGGTTAGTAGTCGAGA, 0.147.
As for TCCCGATTAGTGGAAGAGA, the figure is 0.471; as for TCCCGAGCAGTGTTAGAGA, 0.4.
TCCCGAGCAGTGAGAGAGA yielded a TetR repression strength of 0.689.
As for TCCCGCAAAGTCCTGGAGA, the figure is 0.518; as for TCCCGGTCAGTTGTCGAGA, 0.321; as for TCCCAAGGAGTTGCGGAGA, 0.222.
With TCCCTGCCAGTATAGGAGA, the TetR repression strength turned out to be 0.308.
With TCCCCGCGAGTTCGAGAGA, the TetR repression strength amounted to 0.199.
As for TCCCCAACAGTTACAGAGA, the figure is 0.319; as for TCCCTTTAAGTTGACGAGA, 0.338.
Take TCCCGTAGAGTTGAGGAGA: the TetR repression strength amounted to 0.25.
As for TCCCAAGAAGTGTACGAGA, the figure is 0.181; as for TCCCTAAGAGTTGTCGAGA, 0.185; as for TCCCGGATAGTACGAGAGA, 0.187.
Under TCCCTCGCAGTGCTTGAGA stands 0.215.
As for TCCCATGCAGTGGGCGAGA, the figure is 0.171; as for TCCCGTTGAGTGGAAGAGA, 0.215; as for TCCCGATAAGTCAGTGAGA, 0.747.
In the case of TCCCCGTCAGTCAGCGAGA, the TetR repression strength is 0.203.
Under TCCCCGGCAGTGTGCGAGA stands 0.0971; under TCCCTATGAGTGAGGGAGA, 0.156; under TCCCATTGAGTTCGAGAGA, 0.29.
The sequence TCCCCGTCAGTTAGAGAGA gave a TetR repression strength of 0.187.
In turn, TCCCATTGAGTCCGGGAGA displayed a TetR repression strength of 0.0605.
As for TCCCCAAGAGTAAATGAGA, the figure is 0.368; as for TCCCAGTCAGTGCCCGAGA, 0.242.
Under TCCCTGTCAGTAAGCGAGA stands 0.305.
Under TCCCTAAAAGTTAGGGAGA stands 0.129; under TCCCTTCCAGTTGGGGAGA, 0.123; under TCCCTTCAAGTAGCGGAGA, 0.365.
Sequence TCCCTCGCAGTATTGGAGA had a TetR repression strength of 0.259.
In turn, TCCCCCAAAGTGGATGAGA came in with a TetR repression strength of 0.055.
As for TCCCGCAGAGTGTAGGAGA, the figure is 0.191; as for TCCCTGGAAGTTCGAGAGA, 0.0284; as for TCCCATGCAGTGGTGGAGA, 0.114.
Take TCCCCTATAGTTGTGGAGA: the TetR repression strength was found to be 0.0257.
Under TCCCTGGCAGTTAAAGAGA stands 0.155; under TCCCCATAAGTTTTTGAGA, 0.454.
As for TCCCTATGAGTATCGGAGA, the figure is 0.0209; as for TCCCTTGGAGTGAATGAGA, 0.15.
As for TCCCTGGCAGTACTTGAGA, the figure is 0.109; as for TCCCTACAAGTCGTAGAGA, 0.0381; as for TCCCTGTAAGTGAAAGAGA, 0.231.
Sequence TCCCCTTCAGTGCGGGAGA displayed a TetR repression strength of 0.041.
With TCCCAGGTAGTACGCGAGA, the TetR repression strength was 0.224.
For TCCCACCTAGTTAACGAGA, the TetR repression strength amounted to 0.589.
As for TCCCTGCAAGTGGAGGAGA, the figure is 0.59.
The sequence TCCCGGATAGTAAACGAGA registered a TetR repression strength of 0.224.
As for TCCCTTACAGTCCGGGAGA, the figure is 0.206.
As for TCCCGTGAAGTCATGGAGA, the figure is 0.232; as for TCCCGGTAAGTCGTGGAGA, 0.0301; as for TCCCTAAGAGTGGGCGAGA, 0.157.
As for TCCCGGCGAGTACGGGAGA, the figure is 0.2.
TCCCTCGCAGTGGAGGAGA returned a TetR repression strength of 0.101.
Under TCCCAGGGAGTTTTAGAGA stands 0.305; under TCCCAGGCAGTCCGTGAGA, 0.2; under TCCCTTCTAGTGTGGGAGA, 0.142.
Under TCCCAAGCAGTGGTAGAGA stands 0.313; under TCCCCTAGAGTCAGTGAGA, 0.248; under TCCCGGCCAGTTCCAGAGA, 0.0274.
As for TCCCCGGCAGTTCGGGAGA, the figure is 0.104; as for TCCCTACCAGTTCTTGAGA, 0.396.
Take TCCCTTCGAGTGTATGAGA: the TetR repression strength was determined as 0.287.
In turn, TCCCGCGAAGTGAACGAGA registered a TetR repression strength of 0.175.
TCCCCTACAGTGACGGAGA had a TetR repression strength of 0.174.
As for TCCCGCAGAGTATGCGAGA, the figure is 0.401; as for TCCCGGTGAGTCGCTGAGA, 0.035.
As for TCCCTAGTAGTCGAGGAGA, the figure is 0.061; as for TCCCGATAAGTTATAGAGA, 0.553.
